To fix the notation:
B1: CPEB3 Ribozyme (parent)
chain: UAACAGGGGGCCACAGCAGAAGCGUUCACGUCGCAGCCCCUGUCAGAUUCUGGUGAAUCUGCGAAUUCUGCUGUAUAUCUC

Drawing on the RNAGym collection of RNA variant scans (doi:10.1093/nar/gkz1192), this text covers self-cleavage for 167 variants.

The source gives no read counts; variants with many changes may rest on few reads.

Variants of B1 are the subject of the series. Put plainly: self-cleavage, relative activity (ratio to wild type); higher = more cleavage; in vitro, sequencing. Put shortly:
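Relative activity was defined as the cleaved/total read fraction for a variant divided by the same fraction for the unmutated ribozyme. CPEB3 self-cleaving ribozyme libraries were made by rounds of error-prone PCR, barcoded, and transcribed in vitro with T7 RNA polymerase for 5 hours at 37°C, and cleavage ran through transcription plus a 15 min DNase I step before EDTA. Illumina sequencing of template-switched reverse transcripts gave the reads, and DNA sequencing mapped the barcodes. Averages come from three batches, using variants with at least 5 reads.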
As to A13G A56G A64G, the self-cleavage was 0.6. The value for A13G A28G U31C U69C was 0. As to A13G A45C A56G C68A U69C, the self-cleavage was found to be 0.06.

In the case of A13G A21G A28G G42U U43C U69C, the self-cleavage amounted to 0.28.

In the case of A13G A15U A21C A35U U69G, the self-cleavage turned out to be 0.06. The value for A13G A56U C59U was 0.21; that for A13G A45G U48C U69C A75G was 0.09; that for A13G A20U G46A A57G U60C G61A was 0.11.

A13G A35U A47G: the self-cleavage was determined as 0.32. As to A13G A15G U74C, the self-cleavage was found to be 0.34. Take A13G A18U A35G U43C U80C: the self-cleavage is 0.08.

As to A13G A28G U54C A75U, the self-cleavage turned out to be 0.26.

On to A13G A21G A56G U80A, for which the self-cleavage was determined as 0.51. The figure for A13G A18G A35U U58C G63U is 0.02; for A13G A21G C27A U31C C34U U72A U80C it is 0.05. A13G A20G A21U A28G A45C: the self-cleavage turned out to be 0.34. On to A13G A47G U60C G63U U78C U80C, for which the self-cleavage was determined as 0.07. With A13G A28G U58C, the self-cleavage came to 0.16. A13G A18U G30U: the self-cleavage turned out to be 0.1. For the variant A13G A20G U26A U43C, the self-cleavage amounted to 0.31. The value for A13G A35G U67C U80A was 0.34; that for A13G A18G U25C U43A C71A was 0.26; that for A13G A47G U69C A77G C79U was 0.41. With A13G A28G A56G U72C, the self-cleavage turned out to be 0.24.

For the variant A13G A15U U69C A77U, the self-cleavage came to 0.1. The value for A13G A35G A65G was 0.38; that for A13G A18U A28U U78A was 0.23; that for A13G A20U A35G was 0.36. The figure for A13G A18G C40U U41A U66A U69A U74C is 0.16; for A13G A18U U72A it is 0.18; for A13G A15U U80C it is 0.87. The figure for A13G A47G U67A is 0.49; for A13G A35G U48C U69C it is 0.12. A13G A18U A56U G63A: the self-cleavage was 0.3. The value for A13G A15U A18G U26C G52C A64U A65U was 0.05; that for A13G A18U U67A was 0.17. In the case of A13G A20G A56G U60A, the self-cleavage came to 0.08. The value for A13G A45U U58C A64G was 0.21; that for A13G A28G A45G A75U was 0.29.

On to A13G A20G U31C, for which the self-cleavage was determined as 0.32. The value for A13G A15U A35G was 0.25; that for A13G A56C A77G was 0.37; that for A13G A21G U41A U51C U54C C79U was 0.03. As for A13G A28G C32U U43C A56U U67C U72C, the self-cleavage turned out to be 0.02. Consider A13G A21C U25A A45C, for which the self-cleavage is 0.21. Take A13G A20U C23U C38U A47G U51A: the self-cleavage is 0.07. The value for A13G A18G U51A A56G U72C U80C was 0.11; that for A13G A20G U25A U54C U69C was 0.26; that for A13G A35U U41A was 0.09. The value for A13G A18U U80C was 0.34; that for A13G A28U G33C U43C was 0.24. As for A13G A35U C37A U41C A56G A57G, the self-cleavage came out at 0.12. With A13G A21G A45G U49G U78G, the self-cleavage was 0.55.

With A13G A18G C23G U69C, the self-cleavage is 0.16. In the case of A13G A18G A47G U58C A77U, the self-cleavage came to 0.5. Regarding A13G A15U U43C U72A, the self-cleavage is 0.28. As for A13G A28U U31C C40G U41A U54C U69A, the self-cleavage turned out to be 0.05. The value for A13G A21U G52A U72C was 0.11; that for A13G A45G U48C U69A U80A was 0.43; that for A13G A20U A47G A64G was 0.41. The value for A13G A35U U49C was 0.14; that for A13G A28U A45U A56G U60C U66C was 0.09. The value for A13G A21G C71A A75C was 0.07. In the case of A13G A35G U43A U51C, the self-cleavage was determined as 0.62.

With A13G A20G U31C U72C, the self-cleavage came out at 0.43. The figure for A13G A21G A45U A56U G73A is 0.46; for A13G A35U C39A U43C it is 0.11. The figure for A13G A35G U66C U72C is 0.4; for A13G A20G U26A A35U it is 0.16. Consider A13G A20G U25C A45G U54A, for which the self-cleavage was 0.49.

With A13G A35U U80A, the self-cleavage came to 0.42. As to A13G A21U U78C, the self-cleavage is 0.3. In the case of A13G A28G G33U A35G C50U U51C U72C, the self-cleavage was 0.15. On to A13G A20G U48C C62U A65G C68A U72C, for which the self-cleavage stood at 0.05. The figure for A13G A20G A21U A45G A57G U80A is 0.37; for A13G A45U A56G U60C U67A it is 0.06. As for A13G A21U A47U U66C U69C A77G, the self-cleavage turned out to be 0.07. The value for A13G A18G A28G A35U A47G U48G was 0.23. In the case of A13G A21G A35G, the self-cleavage was 0.36. As to A13G A18U U66C G70A, the self-cleavage stood at 0.12. On to A13G A18U A20U U43G A47U, for which the self-cleavage stood at 0.07. The figure for A13G A20G A65G U67C U80A is 0.38.

With A13G A35G U67A U69C, the self-cleavage stood at 0.22. On to A13G A28G U41C U58C, for which the self-cleavage amounted to 0.14.

In the case of A13G A56U U60A U72C U78C U80A, the self-cleavage was found to be 0.19. Take A13G A20G G46U U48A: the self-cleavage came out at 0.05.

As for A13G A28U A56G U74A, the self-cleavage stood at 0.78. In the case of A13G A21U U25A A35G U74C, the self-cleavage came out at 0.06. A13G A20G G46A U69A U76C: the self-cleavage came to 0.14. As to A13G A21G G30A G55A, the self-cleavage came out at 0.22. The figure for A13G A15U A35G U49A U69C U74C is 0.07; for A13G A21G U26A U41A U58C G63U U74C it is 0.06; for A13G A20U A75U it is 0.14.

On to A13G A35U U41C U69C A77U, for which the self-cleavage was 0.2. A13G A20G G61A U80C: the self-cleavage came out at 0.32.

With A13G A20C A35G A45G, the self-cleavage was found to be 0.04. The value for A13G A15U U67C U69C U72A was 0.12; that for A13G A57U U67C was 0.08. The value for A13G A35G U48C C62A U67C was 0.17.

For A13G A18G A20G A21G U78C C79U, the self-cleavage worked out at 0.1.

As to A13G A21C U60C U69C U78A, the self-cleavage stood at 0.06. Consider A13G A15U A28G A56U U74C, for which the self-cleavage was determined as 0.05. As to A13G A20G U51G, the self-cleavage came to 0.54. The figure for A13G A21G U60A U67C U72A is 0.12. The figure for A13G A21G U25C A57C U60A is 0.04; for A13G A20U U41A it is 0.2. In the case of A13G A28U U54A U67C, the self-cleavage is 0.16. The value for A13G A20G U25C A35G A47G U69A was 0.

With A13G A18G G24A A35G A45U U80A, the self-cleavage worked out at 0.

A13G A21U U26A U31C G61C: the self-cleavage was 0.14. The value for A13G A21G G42A U72A was 0.13. Turning to A13G A20G A35U U51A, the self-cleavage turned out to be 0.24. The figure for A13G A21G U26A U41G A45G U51A G53U is 0.05; for A13G A47G C50A U80C it is 0.67. The figure for A13G A20G A28U C38A U49C A64G is 0.04; for A13G A15U C40U C44A A75U it is 0.07.

For the variant A13G A20G U43A A64G, the self-cleavage was determined as 0.4. Turning to A13G A18G U60A U69A U72G A77G, the self-cleavage turned out to be 0.14. A13G A20G U31C U43C U78A: the self-cleavage is 0.45. In the case of A13G A28U G33A U74C, the self-cleavage was found to be 0.7. In the case of A13G A15U C38A G42U, the self-cleavage was determined as 0.24. Consider A13G A21C A28U C40G A45C A56U A57G, for which the self-cleavage came out at 0.2. The value for A13G A21G U69A U72C was 0.3; that for A13G A20U U49G was 0.08. The value for A13G A20U U26C U43A A75G was 0.16. The figure for A13G A56G C59U is 0.34; for A13G A28U A45U U54A U67G it is 0.41; for A13G A56U U58G A64G U69C it is 0.09.

A13G A18U A64G U69A U72C: the self-cleavage is 0.2. The figure for A13G A28U U51C U60A is 0.11. For the variant A13G A28G C62U, the self-cleavage is 0.14.

Turning to A13G A45U A47U U69A, the self-cleavage was determined as 0.15. A13G A28U A64G U78C: the self-cleavage was 0.32. With A13G A18U C62U, the self-cleavage came to 0.2. The figure for A13G A28C A47G U48C is 0.16. A13G A18G U31G G53A: the self-cleavage came to 0.22. For A13G A15U U25C, the self-cleavage came to 0.06.

For the variant A13G A18G G52U U72C U80A, the self-cleavage worked out at 0.15. Turning to A13G A20G U49A, the self-cleavage stood at 0.55. The figure for A13G A57G A75U is 0.95. Take A13G A56G U60C U76C: the self-cleavage is 0.17.

As to A13G A20G G33U A57G, the self-cleavage amounted to 0.06. The figure for A13G A28U A56G A57G U80C is 0.29; for A13G A18C U49C U72C it is 0.21; for A13G A15U U54C it is 0.49.

In the case of A13G A21U C39A, the self-cleavage was 0.19. Regarding A13G A15U A20G U25C G46C A64U, the self-cleavage stood at 0.06. The value for A13G A20G U31C U51C G52C was 0.39. With A13G A20G A21G U72A, the self-cleavage was found to be 0.08. The value for A13G A28U U41C was 0.33; that for A13G A21U A56G U58A U60C was 0.08.

A13G A15U U54C U69C C79U: the self-cleavage worked out at 0.07. The value for A13G A15U A20U A28G U72C was 0.07; that for A13G A18G U41C A47G C50U U76A was 0.09; that for A13G A15U U25C C39U C50A was 0.29. The value for A13G A28G U54C was 0.22; that for A13G A20G A77G was 0.64; that for A13G A20G U41C A47G was 0.51. On to A13G A18U U41A A47G U60C A64G, for which the self-cleavage stood at 0.28.

On to A13G A21G C34U, for which the self-cleavage came out at 0.02. As to A13G A20U A35G G52C U72A, the self-cleavage worked out at 0.09. For A13G A47G A56G, the self-cleavage came out at 0.9.

For A13G A28G U43C U48C U80C, the self-cleavage stood at 0.34. The value for A13G A21G U54C U67C was 0.1; that for A13G A18G U26A G42A U48C U60A was 0.03.

As to A13G A15U A65G U67C A77G U80G, the self-cleavage was determined as 0.07.

For the variant A13G A15U A18G C34U A47U A56U, the self-cleavage worked out at 0.22.
